The whole screen tested about 200,000 compounds, of which about 10 (0.005%) were called active. Inconclusive results, whose numbers are uncertain, are shown with a selection of clear calls. Calls come from the whole dose curve; as a rule, active = well fitted inhibition curve with a large enough effect; inconclusive = small, poorly fitted or top-dose-only effect, or effect the other way, or another doubt; inactive = no such curve, though single readings can be large or run the other way. No potency is given beside an inconclusive call; the fits are too rough.
target: Lysosomal alpha-glucosidase (Homo sapiens) (UniProt P10253); test: qHTS Assay for Inhibitors of Human alpha-Glucosidase as a Potential Chaperone Treatment of Pompe Disease; conditions: purified human GAA, 4-MU-alpha-glucoside fluorescence; activity change, negative = inhibition: at 76.9 µM (top of the series) unless noted;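 for activity change, negative = inhibition: plate controls were uninhibited enzyme wells for no effect and no-enzyme background for full effect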
Method in brief: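 Read-out is 4-methylumbelliferone fluorescence (Ex 365/Em 440 nm) after NaOH/glycine stop at pH 10. Enzyme 4 nM, substrate 400 uM, pH 5.0 citrate buffer, 20 min room temperature; AC50 from Hill-equation concentration-response.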
Potency is the fitted concentration of half-maximal effect; tags give direction and shape of the fitted curve.

Row | Compound | Potency | activity change, negative = inhibition
1 | Cc1nn(-c2cccc(Cl)c2)c(Cl)c1/C=N/NC(=O)c1cccnc1 | inconclusive [inhibitor, partial curve] | –
2 | Nc1ccc(-c2n[nH]c(=O)c3ccccc23)cc1N | – | inconclusive: -17.4% [inhibitor]
3 | O=C1CCc2cc(S(=O)(=O)N3CCC(C(=O)NC4CCCCCCC4)CC3)ccc2N1 | – | inconclusive: -15.6% [inhibitor]
4 | COc1cccc(S(=O)(=O)NCc2ccc(C(=O)Nc3ccc(Cl)c(Cl)c3)cc2)c1 | inconclusive [inhibitor, single point] | –
5 | CCc1ccc(NC(=O)CSc2nc3ccccc3c(=O)n2CCCC(=O)NCCCN2CCOCC2)cc1 | inconclusive [inhibitor, partial curve, poor fit] | –
6 | O=C1c2cccc3cccc(c23)C(=O)N1Cc1ccccc1 | – | inconclusive: 17.2% [activator]
7 | C=CCn1c(SCC(=O)Nc2cc3oc4ccccc4c3cc2OC)nnc1-c1cnccn1 | inconclusive [inhibitor, partial curve, poor fit] | –
8 | COc1ccccc1C1CC(=O)NC(C)=C1C(=O)OCC(C)C (stereo unspecified) | inconclusive [inhibitor, partial curve, poor fit] | –
9 | CCc1ccc(CNCc2cccs2)cc1 | – | inconclusive: 15.9% [activator]
10 | O=C(/C=C/c1cccc([N+](=O)[O-])c1)NC(=S)Nc1ccc(CN2CCOCC2)cc1 | inconclusive [inhibitor, single point] | –
11 | NC(=O)C1CCN(C(=O)c2ccc(Oc3cc(Cl)cc(Cl)c3)o2)CC1 | inconclusive [inhibitor, partial curve, poor fit] | –
12 | Cn1nc(-c2ccccc2)c2ncc(C(F)(F)F)cc21 | – | inconclusive: 17.5% [activator]
13 | CCOC(=O)CN1C(c2ccc(O)cc2)Nc2ccc(Br)cc2C1c1ccccc1 (stereo unspecified) | inconclusive [inhibitor, partial curve] | –
14 | CCOc1ccc(OCC)c(S(=O)(=O)NNC(=O)c2c(C)nc3ccccn23)c1 | inactive | –
15 | CCc1nc(-c2ccc(-c3ccc(OC)cc3)nc2OC)no1 | inconclusive [inhibitor, single point] | –
16 | COc1cccc(Nc2nc3ccccc3n2C(C)C)c1 | inconclusive [inhibitor, partial curve] | –
17 | CCCC(=O)Nc1nc(C)c(-c2csc(Nc3cc(OC)ccc3OC)n2)s1 | inactive | –
18 | Cc1cccc(NC(=O)CSc2nnnn2-c2cccnc2)c1 | inconclusive [activator, single point] | –
19 | CC(C)CCNC(=O)Cc1c(C(=O)O)[nH]c2ccc(Cl)cc12 | – | inconclusive: 16.2% [activator]
20 | Fc1ccc(C2=CC(c3ccco3)n3ncnc3N2)cc1 (stereo unspecified) | inconclusive [activator, partial curve] | –
21 | O=C(NCc1ccc(Cl)s1)c1cc(COc2c(F)cccc2F)on1 | – | inconclusive: 15.2% [activator]

Row | Compound | Potency | activity change, negative = inhibition
22 | Cc1ccc(NC(=O)C2CCCN2S(=O)(=O)c2ccc3c(c2)CCC(=O)N3)cc1Cl (stereo unspecified) | inconclusive [inhibitor, full curve, poor fit] | –
23 | Cc1cc(C)c2nc3nc(C)c(C)cc3c(N)c2c1 | – | inconclusive: 28.8% [activator]
24 | CC(=O)c1ccc(N2CCN(C(=O)c3nn(Cc4ccccc4)c(=O)c4ccccc34)CC2)cc1 | inconclusive [inhibitor, partial curve, poor fit] | –
25 | CCC(C)(C)n1nnnc1CN(Cc1ccco1)Cc1cc2cc3c(cc2[nH]c1=O)OCO3 | inconclusive [activator, partial curve] | –
26 | Cc1cc(C)c2cc(C#N)c(NCCCNC(=O)CCC(=O)O)nc2c1 | inconclusive [activator, single point] | –
27 | COc1nc2c(c(-c3cc(Br)cs3)c1C#N)Cc1ccccc1-2 | inconclusive [activator, single point] | –
28 | Cc1csc(NC(=O)c2ccccc2O)n1 | inconclusive [activator, partial curve] | –
29 | Cc1nnc(N2CCOCC2)c2nn(-c3ccccc3)c(C)c12 | inconclusive [inhibitor, full curve, poor fit] | –
30 | COc1cccc(NC(=O)C(=O)NCCCn2ccnc2)c1 | – | inconclusive: 10.4% [activator]
31 | CCCC[C@@H]1C[C@H]1[C@@H](NC(=O)c1ccco1)c1ccc(Cl)cc1 | inconclusive [inhibitor, single point] | –
32 | OC1(c2ccc(Cl)cc2)CCN(Cc2nc(-c3cnccn3)no2)CC1 | – | inconclusive: -15.5% [inhibitor]
33 | O=C(CCC1COc2ccccc2O1)Nc1ccccn1 (stereo unspecified) | inconclusive [inhibitor, single point] | –
34 | FC(F)(F)c1ccc(NC(=S)NCc2ccccc2)cc1 | inconclusive [activator, full curve, poor fit] | –
35 | Cn1nnnc1SCC(=O)Nc1nc2ccccc2s1 | – | inconclusive: 16.2% [activator]
36 | CCN1C(=O)C(CC(=O)Nc2ccc(C)cc2C)Nc2cc(S(=O)(=O)N(C)C)ccc21 (stereo unspecified) | inconclusive [inhibitor, single point] | –
37 | COc1nc(-c2ccccc2)nc(C)c1CC(=O)O | inconclusive [inhibitor, partial curve, poor fit] | –
38 | CCOc1ccc(-n2c(SCC)nc3c(c2=O)SCC3)cc1 | inconclusive [inhibitor, single point] | –
39 | Cc1ccn2c(CNC(C)CCn3cccn3)c(C(=O)N3CCCCCC3)nc2c1 (stereo unspecified) | inconclusive [inhibitor, single point] | –
40 | COc1ccccc1CN1C(=O)c2cccc3cccc(c23)C1=O | inconclusive [inhibitor, full curve] | –
41 | Cc1ccc(S(=O)(=O)N(C)CC(=O)OCC(=O)NC(=O)Nc2ccc3c(c2)OCCO3)cc1 | inconclusive [inhibitor, single point] | –
